The list shows a part of the results.
Experiments:
Test in all cases: glycan array binding signal (z-score within array); higher = stronger binding
Settings in all cases: glycan notation: IUPAC condensed, linker removed
[1] = target: Neu5Ac(a2-3)Gal(b1-4)GlcNAc
How it was run: (§1)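 Negative Z-scores can be read as non-binding. The Z-score is calculated within each array and then averaged across arrays of one protein sequence at different concentrations or buffers and across linkers. Arrays, 3228 in all, were curated from the Consortium for Functional Glycomics database and kept only where the protein sequence was available.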

[2] = target: Neu5Ac(a2-3)Gal(b1-4)GlcNAc(b1-2)Man
How it was run: as §1

[3] = target: Neu5Ac(a2-3)Gal(b1-4)GlcNAc(b1-2)Man(a1-3)[GlcNAc(b1-4)][Neu5Ac(a2-3)Gal(b1-4)GlcNAc(b1-2)Man(a1-6)]Man(b1-4)GlcNAc(b1-4)GlcNAc
How it was run: as §1

[4] = target: Neu5Ac(a2-3)Gal(b1-4)GlcNAc(b1-2)Man(a1-3)[Neu5Ac(a2-3)Gal(b1-4)GlcNAc(b1-2)Man(a1-6)]Man(b1-4)GlcNAc(b1-4)GlcNAc
How it was run: as §1

[5] = target: Neu5Ac(a2-3)Gal(b1-4)GlcNAc(b1-2)Man(a1-3)[Neu5Ac(a2-3)Gal(b1-4)GlcNAc(b1-2)Man(a1-6)]Man(b1-4)GlcNAc(b1-4)[Fuc(a1-6)]GlcNAc
How it was run: as §1

[6] = target: Neu5Ac(a2-3)Gal(b1-4)GlcNAc(b1-2)Man(a1-3)[Neu5Ac(a2-6)Gal(b1-4)GlcNAc(b1-2)Man(a1-6)]Man(b1-4)GlcNAc(b1-4)GlcNAc
How it was run: as §1

[7] = target: Neu5Ac(a2-3)Gal(b1-4)GlcNAc(b1-2)[Neu5Ac(a2-3)Gal(b1-4)GlcNAc(b1-4)]Man(a1-3)[GlcNAc(b1-4)][Neu5Ac(a2-3)Gal(b1-4)GlcNAc(b1-2)[Neu5Ac(a2-3)Gal(b1-4)GlcNAc(b1-6)]Man(a1-6)]Man(b1-4)GlcNAc(b1-4)GlcNAc
How it was run: as §1

[8] = target: Neu5Ac(a2-3)Gal(b1-4)GlcNAc(b1-2)[Neu5Ac(a2-3)Gal(b1-4)GlcNAc(b1-4)]Man(a1-3)[GlcNAc(b1-4)][Neu5Ac(a2-3)Gal(b1-4)GlcNAc(b1-4)Man(a1-6)]Man(b1-4)GlcNAc(b1-4)GlcNAc
How it was run: as §1

[9] = target: Neu5Ac(a2-3)Gal(b1-4)GlcNAc(b1-2)[Neu5Ac(a2-3)Gal(b1-4)GlcNAc(b1-6)]Man(a1-6)[Neu5Ac(a2-3)Gal(b1-4)GlcNAc(b1-2)Man(a1-3)]Man(b1-4)GlcNAc(b1-4)GlcNAc
How it was run: as §1

[10] = target: Neu5Ac(a2-3)Gal(b1-4)GlcNAc(b1-2)[Neu5Ac(a2-3)Gal(b1-4)GlcNAc(b1-6)]Man(a1-6)[Neu5Ac(a2-3)Gal(b1-4)GlcNAc(b1-2)Man(a1-3)][GlcNAc(b1-4)]Man(b1-4)GlcNAc(b1-4)GlcNAc
How it was run: as §1

[11] = target: Neu5Ac(a2-3)Gal(b1-4)GlcNAc(b1-3)Gal
How it was run: as §1

[12] = target: Neu5Ac(a2-3)Gal(b1-4)GlcNAc(b1-3)Gal(b1-3)GlcNAc
How it was run: as §1

[13] = target: Neu5Ac(a2-3)Gal(b1-4)GlcNAc(b1-3)Gal(b1-4)GlcNAc
How it was run: as §1

[14] = target: Neu5Ac(a2-3)Gal(b1-4)GlcNAc(b1-3)Gal(b1-4)GlcNAc(b1-2)Man(a1-3)[Neu5Ac(a2-3)Gal(b1-4)GlcNAc(b1-3)Gal(b1-4)GlcNAc(b1-2)Man(a1-6)]Man(b1-4)GlcNAc(b1-4)GlcNAc
How it was run: as §1

[15] = target: Neu5Ac(a2-3)Gal(b1-4)GlcNAc(b1-3)Gal(b1-4)GlcNAc(b1-3)Gal(b1-4)GlcNAc
How it was run: as §1

[16] = target: Neu5Ac(a2-3)Gal(b1-4)GlcNAc(b1-3)Gal(b1-4)GlcNAc(b1-3)Gal(b1-4)GlcNAc(b1-2)Man(a1-3)[Neu5Ac(a2-3)Gal(b1-4)GlcNAc(b1-3)Gal(b1-4)GlcNAc(b1-3)Gal(b1-4)GlcNAc(b1-2)Man(a1-6)]GalNAc
How it was run: as §1

[17] = target: Neu5Ac(a2-3)Gal(b1-4)GlcNAc(b1-3)Gal(b1-4)GlcNAc(b1-3)GalNAc
How it was run: as §1

[18] = target: Neu5Ac(a2-3)Gal(b1-4)GlcNAc(b1-3)Gal(b1-4)GlcNAc(b1-3)[Neu5Ac(a2-3)Gal(b1-4)GlcNAc(b1-3)Gal(b1-4)GlcNAc(b1-6)]GalNAc
How it was run: as §1

[19] = target: Neu5Ac(a2-3)Gal(b1-4)GlcNAc(b1-3)Gal(b1-4)GlcNAc(b1-6)[Gal(b1-3)]GalNAc
How it was run: as §1

[20] = target: Neu5Ac(a2-3)Gal(b1-4)GlcNAc(b1-3)Gal(b1-4)[Fuc(a1-3)]GlcNAc
How it was run: as §1

[21] = target: Neu5Ac(a2-3)Gal(b1-4)GlcNAc(b1-3)GalNAc
How it was run: as §1

[22] = target: Neu5Ac(a2-3)Gal(b1-4)GlcNAc(b1-3)[Neu5Ac(a2-3)Gal(b1-4)GlcNAc(b1-6)]GalNAc
How it was run: as §1

[23] = target: Neu5Ac(a2-3)Gal(b1-4)GlcNAc(b1-6)GalNAc
How it was run: as §1

[24] = target: Neu5Ac(a2-3)Gal(b1-4)GlcNAc(b1-6)[Gal(b1-3)]GalNAc
How it was run: as §1

[25] = target: Neu5Ac(a2-3)Gal(b1-4)GlcNAc(b1-6)[Neu5Ac(a2-3)Gal(b1-3)]GalNAc
How it was run: as §1

[26] = target: Neu5Ac(a2-3)Gal(b1-4)GlcNAc6S
How it was run: as §1

[27] = target: Neu5Ac(a2-3)Gal(b1-4)[Fuc(a1-3)]GlcNAc
How it was run: as §1

[28] = target: Neu5Ac(a2-3)Gal(b1-4)[Fuc(a1-3)]GlcNAc(b1-2)Man
How it was run: as §1

[29] = target: Neu5Ac(a2-3)Gal(b1-4)[Fuc(a1-3)]GlcNAc(b1-3)Gal
How it was run: as §1

[30] = target: Neu5Ac(a2-3)Gal(b1-4)[Fuc(a1-3)]GlcNAc(b1-3)Gal(b1-4)GlcNAc
How it was run: as §1

[31] = target: Neu5Ac(a2-3)Gal(b1-4)[Fuc(a1-3)]GlcNAc(b1-3)Gal(b1-4)[Fuc(a1-3)]GlcNAc(b1-3)Gal(b1-4)[Fuc(a1-3)]GlcNAc
How it was run: as §1

[32] = target: Neu5Ac(a2-3)Gal(b1-4)[Fuc(a1-3)]GlcNAc(b1-3)GalNAc
How it was run: as §1

[33] = target: Neu5Ac(a2-3)Gal(b1-4)[Fuc(a1-3)]GlcNAc(b1-6)[Gal(b1-3)]GalNAc
How it was run: as §1

[34] = target: Neu5Ac(a2-3)Gal(b1-4)[Fuc(a1-3)]GlcNAc(b1-6)[Neu5Ac(a2-3)Gal(b1-3)]GalNAc
How it was run: as §1

[35] = target: Neu5Ac(a2-3)Gal(b1-4)[Fuc(a1-3)]GlcNAc6S
How it was run: as §1

[36] = target: Neu5Ac(a2-3)Gal6S(b1-4)GlcNAc
How it was run: as §1

[37] = target: Neu5Ac(a2-3)Gal6S(b1-4)[Fuc(a1-3)]GlcNAc
How it was run: as §1

[38] = target: Neu5Ac(a2-3)GalNAc
How it was run: as §1

B1: FimA-N3 (Actinomyces oris) (protein)
chain: MHHHHHHSSGVDLGTENLYFQSNAGLQGAQFQLYKAKNAYANTCSNEKEGAPIAINGQTTLTTDAQGAIDIKGLFISDSIDGADRDNQVNAMERCYVLVETKAPAGYVLPAGNGAATPVKVKAGEETTDN
[1]
  glycan array binding signal (z-score): -0.259
[2]
  glycan array binding signal (z-score): 0.309
[3]
  glycan array binding signal (z-score): -0.138
[4]
  glycan array binding signal (z-score): -0.045
[5]
  glycan array binding signal (z-score): -0.17
[6]
  glycan array binding signal (z-score): -0.357
[7]
  glycan array binding signal (z-score): -0.254
[8]
  glycan array binding signal (z-score): -0.431
[9]
  glycan array binding signal (z-score): -0.056
[10]
  glycan array binding signal (z-score): -0.261
[11]
  glycan array binding signal (z-score): -0.56
[12]
  glycan array binding signal (z-score): -0.142
[13]
  glycan array binding signal (z-score): -0.405
[14]
  glycan array binding signal (z-score): 0.001
[15]
  glycan array binding signal (z-score): -0.19
[16]
  glycan array binding signal (z-score): 0.894
[17]
  glycan array binding signal (z-score): -0.529
[18]
  glycan array binding signal (z-score): -0.023
[19]
  glycan array binding signal (z-score): 2.36
[20]
  glycan array binding signal (z-score): 0.29
[21]
  glycan array binding signal (z-score): -0.42
[22]
  glycan array binding signal (z-score): 0.13
[23]
  glycan array binding signal (z-score): -0.007
[24]
  glycan array binding signal (z-score): 0.025
[25]
  glycan array binding signal (z-score): -0.19
[26]
  glycan array binding signal (z-score): -0.458
[27]
  glycan array binding signal (z-score): -0.554
[28]
  glycan array binding signal (z-score): -0.202
[29]
  glycan array binding signal (z-score): -0.324
[30]
  glycan array binding signal (z-score): -0.321
[31]
  glycan array binding signal (z-score): -0.307
[32]
  glycan array binding signal (z-score): 0.165
[33]
  glycan array binding signal (z-score): 1.02
[34]
  glycan array binding signal (z-score): 0.009
[35]
  glycan array binding signal (z-score): -0.078
[36]
  glycan array binding signal (z-score): -0.303
[37]
  glycan array binding signal (z-score): -0.76
[38]
  glycan array binding signal (z-score): -0.257
